The other results are listed elsewhere or left out.
Experiments:
Experiment in all cases: glycan array binding signal (z-score within array); higher = stronger binding
Details in all cases: glycan notation: IUPAC condensed, linker removed
Gal6S(b1-4)Glc = biological target: Gal6S(b1-4)Glc
Method in brief: (§1)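 The binding signal is a Z-score computed within each array and averaged over linkers. Arrays of the same protein sequence at different concentrations or buffers were also averaged together. Data originate from 3228 arrays in the Consortium for Functional Glycomics database, kept only where the protein sequence was available.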

Gal6S(b1-4)Glc6S = biological target: Gal6S(b1-4)Glc6S
Method in brief: as §1

Gal6S(b1-4)GlcNAc = biological target: Gal6S(b1-4)GlcNAc
Method in brief: as §1

Gal6S(b1-4)GlcNAc6S = biological target: Gal6S(b1-4)GlcNAc6S
Method in brief: as §1

GalNAc(a1-3)Gal = biological target: GalNAc(a1-3)Gal
Method in brief: as §1

GalNAc(a1-3)GalNAc = biological target: GalNAc(a1-3)GalNAc
Method in brief: as §1

[1] = biological target: GalNAc(a1-3)GalNAc(b1-3)Gal(a1-4)Gal(b1-4)Glc
Method in brief: as §1

[2] = biological target: GalNAc(a1-3)GalNAc(b1-3)Gal(a1-4)Gal(b1-4)GlcNAc
Method in brief: as §1

GalNAc(b1-3)Gal = biological target: GalNAc(b1-3)Gal
Method in brief: as §1

[3] = biological target: GalNAc(b1-3)Gal(a1-4)Gal(b1-4)GlcNAc
Method in brief: as §1

[4] = biological target: GalNAc(b1-3)Gal(a1-4)Gal(b1-4)GlcNAc(b1-3)Gal(b1-4)Glc
Method in brief: as §1

[5] = biological target: GalNAc(b1-3)Gal(a1-6)Gal(b1-4)Glc
Method in brief: as §1

GalNAc(b1-3)GalNAc = biological target: GalNAc(b1-3)GalNAc
Method in brief: as §1

GalNAc(b1-4)Gal(b1-4)Glc = biological target: GalNAc(b1-4)Gal(b1-4)Glc
Method in brief: as §1

GalNAc(b1-4)GlcNAc = biological target: GalNAc(b1-4)GlcNAc
Method in brief: as §1

[6] = biological target: GalNAc(b1-4)GlcNAc(b1-2)Man(a1-3)[GalNAc(b1-4)GlcNAc(b1-2)Man(a1-6)]Man(b1-4)GlcNAc(b1-4)GlcNAc
Method in brief: as §1

GalNAc(b1-4)GlcNAc6S = biological target: GalNAc(b1-4)GlcNAc6S
Method in brief: as §1

GalNAc(b1-6)GalNAc = biological target: GalNAc(b1-6)GalNAc
Method in brief: as §1

GalNAc3S(b1-4)GlcNAc = biological target: GalNAc3S(b1-4)GlcNAc
Method in brief: as §1

GalNAc3S(b1-4)GlcNAc3S = biological target: GalNAc3S(b1-4)GlcNAc3S
Method in brief: as §1

GalNAc4S6S(b1-4)GlcNAc = biological target: GalNAc4S6S(b1-4)GlcNAc
Method in brief: as §1

GalNAc6S(b1-4)GlcNAc = biological target: GalNAc6S(b1-4)GlcNAc
Method in brief: as §1

Glc(a1-4)Glc = biological target: Glc(a1-4)Glc
Method in brief: as §1

[7] = biological target: Glc(a1-4)Glc(a1-4)Glc(a1-4)Glc
Method in brief: as §1

Glc(a1-6)Glc(a1-6)Glc = biological target: Glc(a1-6)Glc(a1-6)Glc
Method in brief: as §1

[8] = biological target: Glc(a1-6)Glc(a1-6)Glc(a1-6)Glc
Method in brief: as §1

Glc(b1-4)Glc = biological target: Glc(b1-4)Glc
Method in brief: as §1

Glc(b1-6)Glc = biological target: Glc(b1-6)Glc
Method in brief: as §1

GlcA(b1-3)Gal = biological target: GlcA(b1-3)Gal
Method in brief: as §1

GlcA(b1-3)GlcNAc = biological target: GlcA(b1-3)GlcNAc
Method in brief: as §1

GlcA(b1-6)Gal = biological target: GlcA(b1-6)Gal
Method in brief: as §1

[9] = biological target: GlcNAc(a1-3)Gal(b1-4)GlcNAc
Method in brief: as §1

[10] = biological target: GlcNAc(a1-4)Gal(b1-3)GlcNAc
Method in brief: as §1

[11] = biological target: GlcNAc(a1-4)Gal(b1-4)GalNAc
Method in brief: as §1

[12] = biological target: GlcNAc(a1-4)Gal(b1-4)GlcNAc
Method in brief: as §1

[13] = biological target: GlcNAc(a1-4)Gal(b1-4)GlcNAc(b1-3)Gal(b1-4)Glc
Method in brief: as §1

[14] = biological target: GlcNAc(a1-4)Gal(b1-4)GlcNAc(b1-3)Gal(b1-4)GlcNAc
Method in brief: as §1

[15] = biological target: GlcNAc(a1-4)Gal(b1-4)GlcNAc(b1-3)Gal(b1-4)GlcNAc(b1-3)Gal(b1-4)GlcNAc
Method in brief: as §1

[16] = biological target: GlcNAc(a1-4)Gal(b1-4)GlcNAc(b1-3)Gal(b1-4)[Fuc(a1-3)]GlcNAc(b1-3)Gal(b1-4)[Fuc(a1-3)]GlcNAc
Method in brief: as §1

[17] = biological target: GlcNAc(a1-6)Gal(b1-4)GlcNAc
Method in brief: as §1

[18] = biological target: GlcNAc(b1-2)Gal(b1-3)GalNAc
Method in brief: as §1

[19] = biological target: GlcNAc(b1-2)Man(a1-3)[GlcNAc(b1-2)Man(a1-6)]Man(b1-4)GlcNAc(b1-4)GlcNAc
Method in brief: as §1

[20] = biological target: GlcNAc(b1-2)Man(a1-3)[GlcNAc(b1-2)Man(a1-6)]Man(b1-4)GlcNAc(b1-4)[Fuc(a1-6)]GlcNAc
Method in brief: as §1

[21] = biological target: GlcNAc(b1-2)Man(a1-3)[GlcNAc(b1-4)][GlcNAc(b1-2)Man(a1-6)]Man(b1-4)GlcNAc(b1-4)GlcNAc
Method in brief: as §1

[22] = biological target: GlcNAc(b1-2)[GlcNAc(b1-4)]Man(a1-3)[GlcNAc(b1-2)Man(a1-6)]Man(b1-4)GlcNAc(b1-4)GlcNAc
Method in brief: as §1

B1: Calsepa (Calystegia sepium), P93114 (protein)
chain: MAVPMDTISGPWGNNGGNFWSFRPVNKINQIVISYGGGGNNPIALTFSSTKADGSKDTITVGGGGPDSITGTEMVNIGTDEYLTGISGTFGIYLDNNVLRSITFTTNLKAHGPYGQKVGTPFSSANVVGNEIVGFLGRSGYYVDAIGTYNRHK
Gal6S(b1-4)Glc
  glycan array binding signal (z-score): -0.25
Gal6S(b1-4)Glc6S
  glycan array binding signal (z-score): -0.237
Gal6S(b1-4)GlcNAc
  glycan array binding signal (z-score): -0.251
Gal6S(b1-4)GlcNAc6S
  glycan array binding signal (z-score): -0.246
GalNAc(a1-3)Gal
  glycan array binding signal (z-score): -0.245
GalNAc(a1-3)GalNAc
  glycan array binding signal (z-score): -0.247
[1]
  glycan array binding signal (z-score): -0.271
[2]
  glycan array binding signal (z-score): -0.271
GalNAc(b1-3)Gal
  glycan array binding signal (z-score): -0.237
[3]
  glycan array binding signal (z-score): -0.247
[4]
  glycan array binding signal (z-score): -0.247
[5]
  glycan array binding signal (z-score): -0.267
GalNAc(b1-3)GalNAc
  glycan array binding signal (z-score): -0.246
GalNAc(b1-4)Gal(b1-4)Glc
  glycan array binding signal (z-score): -0.267
GalNAc(b1-4)GlcNAc
  glycan array binding signal (z-score): -0.243
[6]
  glycan array binding signal (z-score): -0.201
GalNAc(b1-4)GlcNAc6S
  glycan array binding signal (z-score): -0.274
GalNAc(b1-6)GalNAc
  glycan array binding signal (z-score): -0.27
GalNAc3S(b1-4)GlcNAc
  glycan array binding signal (z-score): -0.271
GalNAc3S(b1-4)GlcNAc3S
  glycan array binding signal (z-score): -0.268
GalNAc4S6S(b1-4)GlcNAc
  glycan array binding signal (z-score): -0.269
GalNAc6S(b1-4)GlcNAc
  glycan array binding signal (z-score): -0.271
Glc(a1-4)Glc
  glycan array binding signal (z-score): -0.246
[7]
  glycan array binding signal (z-score): -0.273
Glc(a1-6)Glc(a1-6)Glc
  glycan array binding signal (z-score): -0.249
[8]
  glycan array binding signal (z-score): -0.276
Glc(b1-4)Glc
  glycan array binding signal (z-score): -0.247
Glc(b1-6)Glc
  glycan array binding signal (z-score): -0.248
GlcA(b1-3)Gal
  glycan array binding signal (z-score): -0.244
GlcA(b1-3)GlcNAc
  glycan array binding signal (z-score): -0.245
GlcA(b1-6)Gal
  glycan array binding signal (z-score): -0.25
[9]
  glycan array binding signal (z-score): -0.239
[10]
  glycan array binding signal (z-score): -0.24
[11]
  glycan array binding signal (z-score): -0.237
[12]
  glycan array binding signal (z-score): -0.243
[13]
  glycan array binding signal (z-score): -0.253
[14]
  glycan array binding signal (z-score): -0.249
[15]
  glycan array binding signal (z-score): -0.246
[16]
  glycan array binding signal (z-score): -0.14
[17]
  glycan array binding signal (z-score): -0.246
[18]
  glycan array binding signal (z-score): -0.245
[19]
  glycan array binding signal (z-score): 1.48
[20]
  glycan array binding signal (z-score): -0.115
[21]
  glycan array binding signal (z-score): 5
[22]
  glycan array binding signal (z-score): -0.261
